From the supplement of paper PMC7826260
The other results are listed elsewhere or left out. The data describe in vitro nicking of single-stranded DNA by Rep domains at 3 µM enzyme and 37 °C for 1 h; the strands have 90 letters, of which the middle is given. Values are log2 of uncut reads against the no-enzyme pool; the lower, the more was cut; hits are not called. Reads are scaled to the total; where an enzyme cuts many sequences, the uncut ones exceed 0.

System: T1, Rep nickase domain of tomato golden mosaic virus
T1 sequence (protein, residues 1-124, tag omitted): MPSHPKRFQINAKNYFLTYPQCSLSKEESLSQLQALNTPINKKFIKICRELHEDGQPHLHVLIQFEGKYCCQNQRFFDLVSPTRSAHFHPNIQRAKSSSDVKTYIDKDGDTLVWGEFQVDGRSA
Experiment: uncleaved DNA left, log2 of reads against the no-enzyme library (log2 ratio); higher = less cleavage (more negative = more Rep cleavage of the k-mer); sequences stand for … in CTCGTCCG…ACCGGAGA
Method: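 A pool of 90-nt single-stranded DNAs with seven random bases just before the constant AC of the nick site (name = the seven bases) was cut by 3 µM recombinant His6-SUMO-tagged Rep nickase domain (300 nM DNA, 50 mM HEPES pH 8.0, 50 mM NaCl, 1 mM MnCl2, 1 h, 37 °C, three replicates). Uncut DNA was amplified and sequenced.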

| Sequence | uncleaved DNA left (log2) |
| --- | --- |
| TCTGTCA | -0.0614 |
| GCCTTCC | -0.16 |
| TGGCATG | -0.0583 |
| TAAGATT | -3.74 |
| ACGATTC | 0.183 |
| CCTGGCG | 0.0199 |
| TATATAT | -0.0101 |
| TATGGCG | -0.0846 |
| GCCCTAT | 0.17 |
| AGTTACG | -0.115 |
| TCGTCAC | -0.00748 |
| GGCAGAT | -0.0257 |
| CTGTCAC | -0.191 |
| CCCGTTA | -0.211 |
| AGCATGA | 0.0796 |
| TATGCGG | 0.082 |
| GTCATAA | 0.156 |
| GGTTTGT | 0.0024 |
| ATTTCTG | -0.000564 |
| CACTCTG | -0.0522 |

| Sequence | uncleaved DNA left (log2) |
| --- | --- |
| TCTAAAG | -0.0373 |
| GAGGGGC | 0.0341 |
| TCACCTA | -0.162 |
| GAACCCC | 0.0735 |
| CGGTGCA | 0.0818 |
| AAGCTTT | 0.193 |
| TATTCTT | -1.33 |
| TCCGAAC | -0.0757 |
| TCTTCGT | -0.224 |
| CTAACCA | 0.0303 |
| TGTCAAT | 0.126 |
| TGCTATG | 0.0199 |
| ATAAACT | 0.125 |
| GCACAAT | 0.03 |
| GAGACCT | 0.111 |
| CTAACTC | -0.0785 |
| TGAACCT | -0.196 |
| AGGGGTG | 0.0662 |
| ATTGTAA | 0.0647 |
| AGAATGA | 0.102 |
